Out of some 48,000 compounds screened, about 120 (0.25%) were called active. Another 4% or so got no clear call; they are omitted. Calls come from the whole dose curve; as a rule, active = well fitted activation curve with a large enough effect; inconclusive = small, poorly fitted or top-dose-only effect, or another doubt; inactive = no such curve, though single readings can be large or run the other way. Some of the results follow.
Assay: Primary qHTS for Identification of Small Molecule Activators of Huntingtin-Antisense Promoter Activity; note: nearly all actives have a fitted effect of over 55% in size
Conditions: HEK293 HTT-AS promoter firefly luciferase reporter (activity 0% = vehicle and -100% = no light), 24 h; series mostly up to 57.5 µM; activity change, positive = activation: at the top concentration
Method in brief: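 Luminescence was read after Dual-Glo reagent and a 10 min room-temperature incubation. Values were normalized to vehicle (0% activity) and zero RLU (-100% activity). Reporter HEK293 cells had been exposed to compounds (up to 57.5 uM final) for 24 h.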

Activity change, positive = activation, inactive:
CCC(=O)N1c2ccc(S(=O)(=O)CCC(=O)N3CCN(c4cc(C)ccc4C)CC3)cc2CC1C (stereo not given) -24.6%
CCOc1ccc2nc(NC(=O)c3nc(SCc4ccccc4C)ncc3Cl)sc2c1 -5.01%
COc1cc(N2CCN(C)CC2)ccc1Nc1nc(N)c(C(=O)c2c(Cl)cccc2Cl)s1 -6.58%
COc1ccc(-n2c(SCC(N)=O)nc3c(oc4ccccc43)c2=O)cc1 -16.2%
Cc1ccc(-c2onc(C)c2C)cc1S(=O)(=O)N1CCOc2ccc(Cl)cc21 -91.4%
Cc1ccccc1OCC(O)CO (stereo not given) 3.84%
O=C(Cc1cccs1)Nc1c(C(=O)Nc2ccc(F)cc2)oc2ccccc12 16.8%
CC(=O)N1CCc2c(sc3c2c(=O)n(Cc2ccccc2)c(=O)n3Cc2ccccc2F)C1 -44%
COc1cc(/C=C(\C#N)c2nc3ccccc3[nH]2)ccc1OCc1ccccc1F -36.4%
COc1ccc(CCC(=O)NCc2ccc3c(c2)CCN3C(=O)c2ccccc2)cc1 -14.4%
COc1c(Cl)cc(C(=O)N(Cc2ccccc2F)C2CCS(=O)(=O)C2)cc1Cl (stereo not given) -8.72%
CCC(Sc1nc(-c2ccc(F)cc2)nc2c1Cc1c(CO)cnc(C)c1O2)C(=O)Nc1ccc(F)cc1 (stereo not given) -11.2%
CCS(=O)(=O)N1CCc2cc(C(=O)N3CCN(c4ccccc4OC)CC3)ccc21 -39.4%
CC(C)(C)OC(=O)N1CCc2nc(N3CCN(c4ncccn4)CC3)ncc2C1 -5.66%
Cc1oc2cc3oc(=O)c(CC(=O)NCc4ccccc4)c(C)c3cc2c1C -2.19%
CC1=C(CC(=O)O)c2cc(F)ccc2/C1=C\c1ccc(S(C)(=O)=O)cc1 -15.4%
Cc1ccc(-n2c(=O)c3sc4ccccc4c3n(C)c2=O)cc1F -4.1%
COc1cccc(NC(=O)c2oc3ccccc3c2NC(=O)c2ccc(F)c(F)c2)c1 22.5%
O=C(CSc1nc2nccnc2c(=O)n1CCc1c[nH]c2ccccc12)Nc1ccccc1 -31.2%
O=C(NC1CC(=O)N(c2ccccc2)C1)C(c1ccccc1)c1ccccc1 (stereo not given) -15.3%
O=C1CN(/N=C/c2ccc([N+](=O)[O-])o2)C(=O)N1 -25.4%
COC(=O)c1c(NC(=O)/C(C#N)=C/c2ccc(OC)cc2)sc2c1CCC2 -5.9%
Cc1ccc(C(=O)N2CCCCC2)cc1NC(=O)c1nsc2ccccc12 -19.8%
Cc1c(CCNC(=O)c2ccc(Br)o2)sc2nc(-c3ccc(Cl)cc3)nn12 -2.09%
COc1ccc(S(=O)(=O)N2CCC(N3CCN(Cc4ccc(F)cc4)C(=O)C3=O)CC2)cc1 -12.2%
CCc1ccc(C(=O)c2cn(CC(=O)Nc3cc(OC)ccc3OC)c3nc(C)ccc3c2=O)cc1 -29.8%
NS(=O)(=O)c1ccc(CCNC(=O)c2ccc3nc(CCc4ccccc4)oc3c2)cc1 5.66%
Cc1cc2c(cc1S(=O)(=O)N(C)CC(=O)Nc1ccc(C#N)cc1)OCC(=O)N2 -29.6%
CCOC(=O)c1c(S(=O)(=O)NCC(=O)Nc2ccc(C)c(N(C)C)c2)c(C)n(C)c1C -15%
Cn1c(=O)c2c(SCC(=O)NCc3ccco3)nc(-c3cccc(F)c3)nc2n(C)c1=O -8.34%
Cc1ccc(S(=O)(=O)c2cn(CC(=O)Nc3ccccc3C)c3cc4c(cc3c2=O)OCO4)cc1 -0.224%
CCOc1ccc(CC(=O)Nc2c(C(=O)Nc3ccc(OC)cc3OC)oc3ccccc23)cc1 -0.0542%
C[C@H](N)[C@H](O)c1cccc(O)c1 -0.714%
COc1ccc(-c2nc3cc(C)ccn3c2NC(=O)c2ccc(F)cc2)cc1 25.5%
Cc1ccc(Cl)cc1NC(=O)C1CCCN(S(=O)(=O)c2cccc3cccnc23)C1 (stereo not given) -20.8%
CCC(=O)N1CCc2cc(Br)cc(S(=O)(=O)N3CCCC(C(=O)Nc4cccc(C)c4C)C3)c21 (stereo not given) -32.1%
Cc1ccccc1NC(=O)c1c(NC(=O)c2ccco2)sc2c1CCC(C(C)(C)C)C2 (stereo not given) -9.16%
COc1ccccc1CNC(=O)CSc1nc2nc(C)c(Cc3ccccc3Cl)c(C)n2n1 0.501%
COc1ccc(N2C(=O)CS(=O)(=O)C23C(=O)N(Cc2ccc(F)cc2)c2ccc(C)cc23)cc1 (stereo not given) -16%
CC(=O)[C@@]1(O)CC[C@H]2[C@@H]3C[C@H](C)C4=CC(=O)CC[C@]4(C)[C@H]3CC[C@@]21C -26.7%
COc1ccc(CCNC(=O)c2cccc(-n3cnc4cccnc43)c2C)cc1OC -22.9%
CC(CNC(=O)CN1C(=O)COc2ccc(S(=O)(=O)N3CCCCCC3)cc21)c1ccccc1 (stereo not given) -33.7%
CCCCNC(=O)c1nn(-c2ccc(C)cc2)c(=O)n(C)c1=O 3.75%
CCOC(=O)c1c(S(=O)(=O)N2CCCC(C(=O)Nc3cccc(C#N)c3)C2)c(C)n(C)c1C (stereo not given) -15.9%
Cc1ccccc1CNC(=O)c1cccc(NC(=O)N2CCSc3ncccc32)c1 -26.6%
CC(Oc1ccccc1)C(=O)Nc1ccc(OCc2cc(=O)n3ccsc3n2)cc1 (stereo not given) 2.59%
COc1cccc(NS(=O)(=O)c2ccc3c(c2)[C@H]2C=CC[C@H]2[C@@H](c2ccccc2Cl)N3)c1 -27.6%
COc1ccccc1NC(=O)CSc1nc2nccnc2c(=O)n1CCc1c[nH]c2ccccc12 -29.4%
Cc1cccn2c(Nc3ccccc3)c(-c3cccs3)nc12 -12.3%
CCN(CC)CCNC(=O)CSc1nc2nc(C)c(Cc3ccccc3)c(C)n2n1 5.79%
CN=C(NC#N)Nc1ccc(C2=NNC(=O)CC2C)cc1 (stereo not given) -7.68%
Cc1[nH]c2ccccc2c1C(c1ccccc1)c1ccc(Cl)s1 (stereo not given) -35.2%
CCOc1ccccc1NC(=O)CCn1cnnn1 4.7%
COc1cccc(CNC(=O)Cc2ccc(NC(=O)N3CCSc4ncccc43)cc2)c1OC -14.6%
Cc1cccc(N2CCN(C(=O)CN3C(=O)COc4ccc(S(=O)(=O)N5CCC(C)CC5)cc43)CC2C)c1 (stereo not given) -16.1%
CC(C)c1nc2ccc(C(=O)NCCCN3CCN(c4cccc(Cl)c4)CC3)cc2o1 -16%
CCOC(=O)N1CCN(Cc2nc3cc([N+](=O)[O-])ccc3n2C(C)C)CC1 -26.7%
CCOc1ccc(CCNC(=O)c2nc(-c3cccc(F)c3)n3c2CCCCC3)cc1OCC -20.2%
CCOc1ccc(CNC(=O)c2cnc3sc(N4CCOCC4)nn3c2=O)cc1OC -21.4%
Cc1cccc(N2CCN(C(=O)C3CCCN(S(=O)(=O)c4ccc(Br)s4)C3)CC2)c1C (stereo not given) -56.1%
CCOC(=O)C1CCC(CN(Cc2ccc(Cl)cc2)S(=O)(=O)c2cc(Cl)cc(Cl)c2)CC1 (stereo not given) -41%
Cc1ccc(-c2nnc(SCC(=O)c3ccc(Cl)cc3)n2-c2ccccc2)cc1 -11.9%
Cc1cccc(N2CCN(S(=O)(=O)c3ccc4c(c3)C(C(C)C)C(=O)N4)CC2)c1C (stereo not given) -86.1%
CCOc1ccccc1NC(=O)C1CCN(S(=O)(=O)c2cc(Br)cc3c2N(C(C)=O)CC3)CC1 -6.67%
COc1cccc(CN2CCCN(CC(=O)Nc3ccc4c(c3)OCCO4)S2(=O)=O)c1 -4.69%
COc1cccc(N(Cc2nnc3n2CCCCC3)C(=O)Nc2ccccc2)c1 -8.69%
Cc1nc2nc(NC(=O)c3ccc(C(C)(C)C)cc3)[nH]n2c(=O)c1Cl -6.97%
Cc1oc(-c2ccccc2F)nc1CSCC(=O)N1CCN(c2ccccc2)CC1 -63.9%
CCN(CC)CCOC(=O)C(Cc1cccc2ccccc12)CC1CCCO1 (stereo not given) -18.3%
CCOc1ccc(CNC(=O)c2ccc3c(c2)N(CC)CCS3)cc1 -2.91%
CCCCOc1ccc(C(=O)NCCc2sc(-c3ccc(OC)c(OC)c3)nc2C)cc1 -19.4%
O=C(Nc1cccc(O)c1)c1cc2nc(-c3ccc(Br)cc3)cc(C(F)(F)F)n2n1 -22.2%
COc1ccc(N2CCN(C(=O)CSc3c4c(nc5ccc(Cl)cc35)CCCC4)CC2)cc1 -24.4%
Cc1ccccc1CNc1nc(N(C)C)nc2c1cnn2C -21.2%
Cc1ccc(NC(=O)C2CCN(S(=O)(=O)c3ccc4[nH]c(=O)ccc4c3)CC2)cc1C -9.62%
CCc1cccc(CC)c1NC(=O)Cn1c(=O)c(-c2cc(C)ccc2NC(C)=O)nc2ccccc21 -11.9%
CCOc1ccc(CCNC(=O)Cn2c(-c3cccs3)cc3cc(F)ccc32)cc1OCC -39.7%
CCCc1cc(N2CCN(c3ccccc3)CC2)n2cnnc2n1 -21.7%
CCc1ccc(CN(Cc2ccco2)c2cnc(S(C)(=O)=O)nc2C(=O)Nc2c(C)cccc2C)cc1 -28.8%
Cn1c(=NC(=O)c2ccc(S(=O)(=O)N3CCCC3)cc2)sc2cc(F)ccc21 -0.141%
CCc1ccccc1NCc1nnc2n1CCCCC2 -1.16%
O=C1COc2cc(S(=O)(=O)CCC(=O)N3CCN(c4ccccc4F)CC3)c(Cl)cc2N1 -19.4%
O=C(Cn1c(-c2cccs2)cc2ccccc21)N1CCN(c2ccccc2F)CC1 -27.8%
COc1ccc(NC(=O)CSC2=Nc3ccccc3C3=NC(CC(=O)NCc4ccco4)C(=O)N23)cc1 (stereo not given) -16.5%
O=C(CSc1nnc(-c2ccncc2)n1-c1ccccc1)Nc1ccc(Cl)c(Cl)c1 -31.4%
CCN(C(=O)CSc1nnc(-c2cc(OC)c(OC)c(OC)c2)o1)c1ccccc1 -27.4%
Clc1ccc(CCNc2nc3ccccc3c3nc(-c4ccccc4)nn23)cc1 -8.72%
Cc1ccc(C(=O)N(Cc2ccco2)Cc2ccco2)cc1 -0.0852%
CCOc1cc(CNC(=O)c2ccccc2NC(=O)c2nsc3ccccc23)ccc1OC 16.7%
CCOc1ccc(NC(=O)Cn2cc(C(=O)c3cccs3)c3ccccc32)cc1 -17.6%
CCOc1cccc(CC(=O)NCc2ccc3c(c2)CCN3C(=O)c2ccc(F)cc2)c1OCC -0.843%
CC1(C)S[C@@H]2[C@H](NC(=O)C(C(=O)O)c3ccccc3)C(=O)N2[C@H]1C(=O)O (stereo not given in full) 3.33%
CCOC(=O)OCC/C(SC(=O)OCC)=C(\C)N(C=O)Cc1cnc(C)nc1N -6.7%
COc1cccc(CCNC(=O)c2cnc3sc(N4CCCCCC4)nn3c2=O)c1 -5.91%
O=C(Nc1ccc2oc(-c3cccnc3)nc2c1)c1ccc(-c2cccc(Cl)c2)o1 -33.1%

— PubChem BioAssay AID1508624 (National Center for Advancing Translational Sciences (NCATS), 2021)
